# Results taken from the supplement of paper PMC3334620.
# In all, about 33,000 sequences were measured (“E-score (-0.5 to 0.5)”: median about -0.04, highest 2% from about 0.36 on). The list shows a part of the results.
# Target: T1, Hmlalpha2 (UniProt P0CY09)
# T1 sequence: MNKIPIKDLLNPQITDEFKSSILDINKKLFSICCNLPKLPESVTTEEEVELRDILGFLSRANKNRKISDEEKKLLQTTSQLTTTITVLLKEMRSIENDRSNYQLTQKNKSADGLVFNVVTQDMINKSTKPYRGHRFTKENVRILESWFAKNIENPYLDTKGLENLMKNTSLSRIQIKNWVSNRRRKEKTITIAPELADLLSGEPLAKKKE
# Assay: PBM E-score (8-mer binding enrichment) (E-score (-0.5 to 0.5)); higher = stronger / more preferred TF binding; most listed sequences are background and not binding sites
# Settings: protein concentration: 200 nM; construct: GST-full length
# How it was run: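 For each ungapped eight-base word taken together with its reverse complement, the Universal PBM Analysis Suite assigned an E-score. Binding data came from GST-tagged yeast transcription factors, applied at about 100-200 nM, on universal all-10-mer Agilent arrays made double-stranded by primer extension. Fluorescent anti-GST marked bound protein, and scans were normalised with masliner.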
row,Sequence,PBM E-score
1,CATGATCA,0.17
2,CGACGCCC,-0.089
3,ACCTGGGG,-0.269
4,CCGCTTAA,0.0712
5,CATCAGCC,-0.123
6,CACCGAGG,-0.153
7,AATGAAAC,0.103
8,AACGCGGG,0.188
9,GATCAAGA,0.00593
10,ACCCTGGG,-0.116
11,ACCTCCTG,-0.0659
12,AAACTCGG,-0.0452
13,CAGGTACC,-0.139
14,AGTCTGCG,-0.0616
15,CCTCCTCG,-0.306
16,GAACGGGC,-0.266
17,GAAGCGTC,-0.035
18,ACTACAAC,0.258
19,AAAAACGA,0.179
20,TATGGGAA,-0.169
21,CACGCAGA,0.186
22,TCTCCGCA,-0.191
23,AGACCGAT,-0.055
24,CACATGGG,-0.0456
25,AGCATCCC,-0.348

row,Sequence,PBM E-score
1,AGTGGGTA,-0.0925
2,GTTGGGGA,-0.0189
3,CCTCCCGC,-0.0916
4,ACAGGACC,-0.0846
5,ACTTGTTC,0.202
6,GCGAGACC,-0.0811
7,GCTGACCA,-0.303
8,GAAGAACC,-0.121
9,AATGAATT,0.098
10,GGTATCAA,-0.0124
11,AGCACGAG,-0.00788
12,CGAGAACG,-0.0885
13,ATGTCGCG,0.0866
14,AGGGATCC,-0.382
15,CGGAAAAG,-0.251
16,CCACAACC,0.0478
17,CTAGAGCC,-0.203
18,AACCAGCA,0.00123
19,AAGAGAGT,-0.16
20,ATTTTTGC,0.0758
21,GCGTGAGA,-0.129
22,ATTGTCGG,-0.0862
23,AACCTTTC,-0.149
24,GCGATTAC,0.275
25,CATCCTGC,-0.183

row,Sequence,PBM E-score
1,CCACTCAC,-0.156
2,GACCGCGA,-0.265
3,CCCCCCCA,-0.371
4,ACTGGTGA,-0.189
5,GATGCATA,-0.13
6,CCTTAATA,-0.0606
7,CACTCTCC,-0.064
8,CAAGATAG,-0.0379
9,GGTACAGA,-0.00788
10,AAGCGCGG,-0.0646
11,ATGAGGAA,0.0377
12,CCAAGCGA,-0.145
13,GTATGAGA,0.0381
14,ATAGCAAA,0.0897
15,CATGCGGC,-0.0127
16,GCAAGCCC,-0.0887
17,AGTCACAA,0.158
18,ATACTGCG,-0.0383
19,CATGGTCC,-0.0621
20,CCCGACAC,-0.149
21,CAAGTTGG,0.0415
22,ATCCCATA,-0.0474
23,ACGCATCC,-0.125
24,CCTTTTGA,0.0788
25,CAGCGTGG,-0.124

row,Sequence,PBM E-score
1,ACATAACC,0.222
2,ATTTGGTC,0.0589
3,AACCAACT,0.115
4,GTAGAGAC,0.0602
5,GCTGTTAC,-0.0161
6,AAGTGTGC,-0.0583
7,CACTACCA,0.0358
8,GGTCTAAC,-0.072
9,CATGGAGG,-0.057
10,GCCTGGTA,-0.0262
11,ACCACACG,0.253
12,CTAGCGCC,-0.158
13,AGTGCGCC,-0.169
14,TCGATTAA,0.312
15,AACCCCTT,-0.117
16,CGGCTATA,-0.0106
17,CTCCAAAA,-0.125
18,GACTCGAC,-0.0146
19,CTTACCTA,-0.0366
20,CAAGCACC,-0.00603
21,AGTTTCTA,0.0595
22,GCCGAGAA,-0.131
23,CTTTCAGC,-0.137
24,CCTCGTTA,0.194
25,GTCAAATA,0.178

row,Sequence,PBM E-score
1,GCGGCTTA,-0.112
2,AAATTACA,0.424
3,CGCACTTC,-0.129
4,CTTATATA,0.178
5,AAGATATC,-0.08
6,CAACTAGA,0.0606
7,GAGTAGGA,-0.272
8,CTATTTGC,-0.164
9,GATGATGA,-0.155
10,GTAGCCAC,-0.204
11,CAACGTCC,-0.125
12,AAGATTTG,-0.0746
13,AAGATTGT,0.175
14,ATTACTCC,0.104
15,AGGGGAAA,-0.147
16,AACTGCGC,-0.0259
17,CCGTGACG,-0.012
18,AATTGGCG,-0.0647
19,CTATGTTA,0.414
20,CTTCAGAC,-0.102
21,CCGTTTAC,0.259
22,CATGTACA,0.458
23,GATTAGAA,-0.142
24,AATGGTCT,-0.0744
25,ATGACCTC,-0.234

row,Sequence,PBM E-score
1,AGCATGAA,0.0173
2,CTCGCATC,-0.156
3,ACTCAGCG,-0.113
4,GGGCAAGA,-0.0917
5,CACGGCTC,-0.0568
6,GCGTACAA,0.201
7,ACTATGCG,0.0742
8,GAACCCCA,-0.247
9,CGACTAAC,0.19
10,ATACAACC,0.233
11,ACCGATGA,-0.139
12,ACTTGAAA,0.00903
13,CCCATTCA,-0.214
14,CACGTAGA,0.3
15,ATGGCCGC,-0.0676
16,AGGTTGTG,0.114
17,CGTTTGGC,-0.0756
18,CACATTTA,0.167
19,CAGAAAGA,-0.0644
20,CCGGGTCA,-0.162
21,TGAAATCA,0.0716
22,GCATACTA,-0.0219
23,CCTACCAG,-0.351
24,CCTAGCTA,-0.193
25,CGAGTGCC,-0.285

row,Sequence,PBM E-score
1,ATTTATCG,0.0807
2,CCTGGGCG,-0.173
3,GGAGCTCC,-0.328
4,AACAAGGA,0.278
5,GAGTTTGA,0.0439
6,ACCGTTAA,0.0359
7,ACGGAAAC,-0.0693
8,CATATACG,0.262
9,ACCTGGCC,-0.079
10,CAACCTGA,0.0231
11,CGTTCATA,0.102
12,CATGCCGC,0.038
13,CACGATAA,0.285
14,GGTCGGCA,-0.263
15,AAGAGGCT,-0.137
16,ACATCTTC,0.0985
17,TCCCTAGA,-0.15
18,GATCGCGC,0.122
19,AAAGGCAG,0.0179
20,TAGTGGCA,-0.27
21,CAACGATC,-0.117
22,TCAACGGA,-0.00439
